{"source": "paper PMC4336329", "about": "(PLoS ONE, 2015)", "note": "In all, about 310,000 compounds went through this assay and about 2,200 (0.71%) showed an effect of 50% or more. Effects have a minus sign here. The list shows a part of the results.", "data": [{"molecular_target": "human ether-à-go-go-related gene (hERG) potassium channel (human, UniProt Q12809)", "sequence (Q12809 whole entry, looked up)": "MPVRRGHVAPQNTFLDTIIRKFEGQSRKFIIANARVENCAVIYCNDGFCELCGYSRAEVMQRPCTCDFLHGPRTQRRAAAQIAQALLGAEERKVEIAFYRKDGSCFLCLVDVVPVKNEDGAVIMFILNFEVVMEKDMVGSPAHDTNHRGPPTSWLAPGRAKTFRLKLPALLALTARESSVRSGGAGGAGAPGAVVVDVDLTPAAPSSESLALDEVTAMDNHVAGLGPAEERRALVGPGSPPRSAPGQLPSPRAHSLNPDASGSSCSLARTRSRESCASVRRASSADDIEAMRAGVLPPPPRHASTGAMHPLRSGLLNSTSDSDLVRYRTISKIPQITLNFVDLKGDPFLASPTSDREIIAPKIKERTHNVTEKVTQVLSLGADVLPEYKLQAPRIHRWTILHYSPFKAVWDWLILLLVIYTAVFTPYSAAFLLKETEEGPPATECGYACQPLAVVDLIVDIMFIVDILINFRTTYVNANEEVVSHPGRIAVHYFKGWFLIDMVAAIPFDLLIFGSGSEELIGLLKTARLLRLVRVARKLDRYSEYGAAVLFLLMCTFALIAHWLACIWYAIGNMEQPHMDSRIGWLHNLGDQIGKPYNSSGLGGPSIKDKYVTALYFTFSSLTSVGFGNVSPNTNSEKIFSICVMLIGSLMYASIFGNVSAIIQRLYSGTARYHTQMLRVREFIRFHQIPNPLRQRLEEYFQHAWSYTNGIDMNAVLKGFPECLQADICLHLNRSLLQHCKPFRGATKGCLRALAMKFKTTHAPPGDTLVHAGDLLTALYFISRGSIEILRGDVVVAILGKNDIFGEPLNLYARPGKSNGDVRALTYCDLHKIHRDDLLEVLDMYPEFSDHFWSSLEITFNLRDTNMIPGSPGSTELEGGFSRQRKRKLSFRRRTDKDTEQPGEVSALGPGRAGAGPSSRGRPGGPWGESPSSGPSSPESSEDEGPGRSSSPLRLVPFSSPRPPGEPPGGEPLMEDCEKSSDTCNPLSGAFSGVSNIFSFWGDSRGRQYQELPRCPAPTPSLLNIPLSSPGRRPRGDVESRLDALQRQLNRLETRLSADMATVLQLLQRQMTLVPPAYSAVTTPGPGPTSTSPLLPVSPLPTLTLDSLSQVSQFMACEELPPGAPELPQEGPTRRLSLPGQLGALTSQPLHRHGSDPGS", "assay": "primary screen, population patch clamp on CHO cells stably expressing hERG", "units": {"hERG current change (%, negative = inhibition) at 1uM": "%"}, "values": [{"smiles": "Clc1cccc(Cl)c1CSc1nnc(-c2ccncc2)s1", "hERG current change (%, negative = inhibition) at 1uM": 15.8}, {"smiles": "CCOc1cc(CNC2CCCC2)ccc1OCc1ccccc1Cl.Cl", "hERG current change (%, negative = inhibition) at 1uM": 7.65}, {"smiles": "Cc1ccc(CNS(=O)(=O)c2ccccc2[N+](=O)[O-])cc1", "hERG current change (%, negative = inhibition) at 1uM": 0.107}, {"smiles": "O=C(N/N=C/c1ccc(O)cc1)/C(=C/c1ccccc1)CCO", "hERG current change (%, negative = inhibition) at 1uM": -4}, {"smiles": "CCOc1ccccc1/C=C(\\C#N)C(=O)NC1CC1", "hERG current change (%, negative = inhibition) at 1uM": 18.6}, {"smiles": "Cc1ccc(F)cc1NC(=O)C1CCN(c2cnccn2)CC1", "hERG current change (%, negative = inhibition) at 1uM": 7.97}, {"smiles": "CCN(CC)C(=O)/C(NC(=O)c1ccccc1)=C(/Sc1ncccn1)c1ccccc1", "hERG current change (%, negative = inhibition) at 1uM": 8.38}, {"smiles": "O=C(c1ccccc1)N1N=C(c2ccccc2O)CC1c1ccccc1", "note": "(centres unmarked)", "hERG current change (%, negative = inhibition) at 1uM": 8.14}, {"smiles": "CN(C)CCCNC(=O)/C=C/c1ccc2c(c1)OCO2", "hERG current change (%, negative = inhibition) at 1uM": 1.68}, {"smiles": "CCn1c(CC(=O)Nc2ccc(C)c(Cl)c2)nnc1SCc1ccc(Cl)c(Cl)c1", "hERG current change (%, negative = inhibition) at 1uM": -0.657}, {"smiles": "Cc1ccccc1-c1nnc2c3ccccc3c(C)nn12", "hERG current change (%, negative = inhibition) at 1uM": 12.5}, {"smiles": "O=C(Nc1ccccn1)c1cccs1", "hERG current change (%, negative = inhibition) at 1uM": 2.63}, {"smiles": "O=C(O)CNc1nc(-c2ccccc2)c2cc([N+](=O)[O-])ccc2n1", "hERG current change (%, negative = inhibition) at 1uM": 19.4}, {"smiles": "O=[N+]([O-])c1cc(-c2n[nH]c(-c3ccccc3)n2)cc([N+](=O)[O-])c1", "hERG current change (%, negative = inhibition) at 1uM": 12.2}, {"smiles": "Cc1ccc(-c2nnc(SCC(=O)N3CCCc4ccccc43)n2N)cc1", "hERG current change (%, negative = inhibition) at 1uM": 8.76}, {"smiles": "Cc1[nH]c2ccccc2c1SCC(=O)N1CCCCC1", "hERG current change (%, negative = inhibition) at 1uM": 17.7}, {"smiles": "CCOC(=O)C1CC2CC(C1)CN(C(=O)C1CCCCC1)C2", "note": "(centres unmarked)", "hERG current change (%, negative = inhibition) at 1uM": 11.2}, {"smiles": "CCOc1cc(CN2CCN(c3cccc(C(F)(F)F)c3)CC2)ccc1O", "hERG current change (%, negative = inhibition) at 1uM": -2.82}, {"smiles": "C=CCn1cccc(C(=O)Nc2ccc(C)c(Cl)c2)c1=O", "hERG current change (%, negative = inhibition) at 1uM": 6.75}, {"smiles": "COc1ccc(C(C(=O)OC(C)CN(C)C)c2ccccc2)cc1.Cl", "note": "(centres unmarked)", "hERG current change (%, negative = inhibition) at 1uM": -8.15}, {"smiles": "COC(=O)c1ccccc1-c1ccc(/C=C2\\C(=O)N(c3ccccc3)N=C2c2ccccc2)o1", "hERG current change (%, negative = inhibition) at 1uM": 5.03}, {"smiles": "CC(=O)c1ccc(NC(=O)C2CCN(S(=O)(=O)c3cccs3)CC2)cc1", "hERG current change (%, negative = inhibition) at 1uM": 5.76}, {"smiles": "c1ccc(-n2nnnc2Oc2cccc3cccnc23)cc1", "hERG current change (%, negative = inhibition) at 1uM": 14.3}, {"smiles": "O=C(c1ccco1)N1CCN(c2nc(-c3ccc(F)cc3)cs2)CC1", "hERG current change (%, negative = inhibition) at 1uM": 1.54}, {"smiles": "O=C(CNC(=O)c1ccc(Br)o1)NNC(=O)c1cccc(Cl)c1", "hERG current change (%, negative = inhibition) at 1uM": -9.56}, {"smiles": "Cc1cccc(C)c1NC1=C(Cl)C(=O)OC1OC(=O)c1ccccc1", "note": "(centres unmarked)", "hERG current change (%, negative = inhibition) at 1uM": 13.9}, {"smiles": "CCc1ccc(C2NC(=S)NC3=C2C(=O)N(c2ccccc2OC)C(c2ccc(CC)cc2)N3)cc1", "note": "(centres unmarked)", "hERG current change (%, negative = inhibition) at 1uM": 2.32}, {"smiles": "CCOc1ccc(NC(=O)COc2ccc(C(=O)NCc3cccc(OC)c3)cc2OC)cc1", "hERG current change (%, negative = inhibition) at 1uM": 4.5}, {"smiles": "COc1ccccc1CNC(=O)c1cnccn1", "hERG current change (%, negative = inhibition) at 1uM": 5.91}, {"smiles": "Cc1nc([N+](=O)[O-])cn1CCC#N", "hERG current change (%, negative = inhibition) at 1uM": 6.54}, {"smiles": "O=C1CCc2cc(NS(=O)(=O)c3ccc(Br)cc3)cc3c2N1CC3", "hERG current change (%, negative = inhibition) at 1uM": -0.938}, {"smiles": "CC(c1n[nH]c(=S)n1Cc1ccccc1)N(C)C", "note": "(centres unmarked)", "hERG current change (%, negative = inhibition) at 1uM": 7.92}, {"smiles": "O=C(Cc1ccc2c(c1)OCCO2)c1c(O)cc(O)cc1O", "hERG current change (%, negative = inhibition) at 1uM": 7.12}, {"smiles": "NC(=S)N/N=C1\\CC(c2ccc3c(c2)OCCO3)Oc2ccc(F)cc21", "note": "(centres unmarked)", "hERG current change (%, negative = inhibition) at 1uM": 15.3}, {"smiles": "COc1cc(/C=C/C(=O)OCC(=O)NC(=O)NC(C)C)cc(S(=O)(=O)N2CCc3ccccc32)c1OC", "hERG current change (%, negative = inhibition) at 1uM": 5.77}, {"smiles": "Cc1c(NC(=O)COC(=O)c2c3c(nc4ccccc24)CCCC3)c(=O)n(-c2ccccc2)n1C", "hERG current change (%, negative = inhibition) at 1uM": 11.9}, {"smiles": "Cc1nc(Cl)c(S(N)(=O)=O)c(C)c1Cl", "hERG current change (%, negative = inhibition) at 1uM": 10.3}, {"smiles": "COc1ccc(CCNS(=O)(=O)c2ccc3c(c2)CC(C)N3C(C)=O)cc1OC", "note": "(centres unmarked)", "hERG current change (%, negative = inhibition) at 1uM": -2.97}, {"smiles": "Cc1cccc(NC(=S)N(Cc2ccc(Br)cc2)Cc2ccc(C(=O)O)cc2)c1", "hERG current change (%, negative = inhibition) at 1uM": 12.7}, {"smiles": "Cc1cc(C)nc(-n2ncc(C#N)c2N)n1", "hERG current change (%, negative = inhibition) at 1uM": 8.82}, {"smiles": "O=S(=O)(Nc1ccc(Br)cc1)N1CCOCC1", "hERG current change (%, negative = inhibition) at 1uM": 6.85}, {"smiles": "CC(=O)N1CCN(CC(C)(C)NS(=O)(=O)c2ccc(C)cc2)CC1", "hERG current change (%, negative = inhibition) at 1uM": 6.35}, {"smiles": "N#Cc1c(N)nc2c(c1N)CC(C(F)(F)F)O2", "note": "(centres unmarked)", "hERG current change (%, negative = inhibition) at 1uM": 19}, {"smiles": "COc1ccccc1NC(=O)c1ccc(NC(=O)COC(=O)CC(NC(=O)c2ccccc2Cl)c2ccccc2)cc1", "note": "(centres unmarked)", "hERG current change (%, negative = inhibition) at 1uM": 14}, {"smiles": "Cc1ccnc(NC(=O)c2ccc3c(c2)C(=O)N(CC(C)C)C3=O)c1", "hERG current change (%, negative = inhibition) at 1uM": 12.5}, {"smiles": "CC(=O)c1ccc(C(=O)N2CCC(CO)(Cc3cccc(C(F)(F)F)c3)CC2)cc1", "hERG current change (%, negative = inhibition) at 1uM": -33.1}, {"smiles": "COc1ccc2[nH]c(=O)c(CN(Cc3cccnc3)Cc3nnnn3CC3CCCO3)cc2c1", "note": "(centres unmarked)", "hERG current change (%, negative = inhibition) at 1uM": 10.9}, {"smiles": "COc1ccc(OCCNC(=O)CCCO)cc1", "hERG current change (%, negative = inhibition) at 1uM": 11.7}, {"smiles": "COc1ccc(C2CCCN2C(=O)Nc2ccccc2)cc1OC", "note": "(centres unmarked)", "hERG current change (%, negative = inhibition) at 1uM": 4.51}, {"smiles": "CC(=O)c1cccc(N2C(=O)CC(N3CCN(S(=O)(=O)c4ccc(Cl)cc4)CC3)C2=O)c1", "note": "(centres unmarked)", "hERG current change (%, negative = inhibition) at 1uM": 1.19}, {"smiles": "COCCOc1cc(N)c(Cl)cc1Cl", "hERG current change (%, negative = inhibition) at 1uM": 7.73}, {"smiles": "COc1cc2c(C(=O)NCc3ccccn3)cn(CC(C)C)c(=O)c2cc1OC", "hERG current change (%, negative = inhibition) at 1uM": 14.1}, {"smiles": "COc1ccc(N2C=C3C(=O)C(C)(OC(=O)CCc4ccccc4)C(=O)C=C3C=C2c2ccc(C#N)cc2)cc1", "note": "(centres unmarked)", "hERG current change (%, negative = inhibition) at 1uM": 14.6}, {"smiles": "O=S(=O)(c1ccc(Cl)s1)N1CCCc2cccc(O)c21", "hERG current change (%, negative = inhibition) at 1uM": 16.7}, {"smiles": "CC(=O)Nc1ccc(S(=O)(=O)Nc2ccc(S(=O)(=O)N3CCCCCC3)cc2)cc1", "hERG current change (%, negative = inhibition) at 1uM": 7.65}, {"smiles": "COc1cc(CN2CC(=O)N(c3cccc(Cl)c3C)C2=S)cc(OC)c1OC", "hERG current change (%, negative = inhibition) at 1uM": 11.6}]}]}
